# The list shows a part of the results. Antibody binding of pooled human sera (four to six donors per pool; dilution not stated) to peptides of the Trypanosoma cruzi antigen TSSA on microarrays. Quantile-normalised fluorescence in arbitrary units, mean of duplicate arrays; higher = more binding. No active / inactive call. The uninfected pools are read here as the healthy donors of the same country. The strongest signals lie near the top of the scale (about 60,000).
# Test system: pooled sera of chronic Chagas disease patients, Argentina
# Test: antibody binding signal (normalised fluorescence) (arbitrary fluorescence units); higher = stronger serum antibody binding to peptide
# Method: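 Microarray of 15-residue peptides over residues 30-55 of Trypanosoma cruzi TSSAII, each with 1 to 10 substitutions at naturally variable positions, probed with one serum pool per country.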
row,Sequence,antibody binding signal
1,GKDKKAATGETPSPS,2400
2,GKDNKTATGEAPSQS,16000
3,GKEKKTAAGEAPSQP,1980
4,GKDNKPAAGGTPSQP,374
5,TDKKPATGGAPSPSG,1250
6,TDKKPATGGTPSPPG,808
7,PSGKDKKPATGGAPS,2940
8,PSGTDKKPAAGETPS,5010
9,GKDNKPATGEAPSPP,44200
10,SGTDKKPATGGAPSQ,2930
11,KAAAGGTPSQPGASS,200
12,SGTEKKTAAGGAPSQ,514
13,SGTEKKAATGETPSP,1490
14,TENKPATGEAPSPPG,45700
15,TEKKTATGGTPSQPG,1190
16,GKDKKAAAGETPSQP,659
17,TPPSGTDNKAATGGA,49600
18,GTENKPAAGEAPSPS,46000
19,DNKTATGGTPSPPGA,347
20,SGKDNKAAAGEAPSP,1030

row,Sequence,antibody binding signal
1,NKAATGGAPSQSGAS,728
2,STPPSGTDKKAATGE,35800
3,SGTEKKPAAGGTPSP,2470
4,SGKDKKPATGGAPSP,1250
5,TPPSGTEKKAAAGGA,35000
6,PPSGKENKAAAGETP,6000
7,GTDNKTATGEAPSPS,13600
8,PPSGKENKTAAGGTP,8800
9,DKKAAAGEAPSPSGA,965
10,TDNKTAAGGAPSQPG,331
11,GTDNKPATGEAPSQP,45800
12,TDNKPATGGAPSQPG,2150
13,SGKDNKTAAGGTPSQ,1560
14,SGTDKKTATGGAPSP,2560
15,ENKTAAGGTPSQSGA,1830
16,GKEKKTAAGGAPSQS,3330
17,STPPSGTENKTAAGE,49100
18,SGTDNKAATGETPSP,5830
19,PSGKENKTAAGGAPS,7800
20,SGKDKKPATGEAPSP,45000
